Assay results from the supplement of paper PMC3334620.
Whole data set: some 33,000 sequences, median “E-score (-0.5 to 0.5)” near -0.035, cut for the highest 2% near 0.35. This is one part of the list.

Each sequence was assayed against T1, Pdr3 (UniProt P33200) (assay: PBM E-score (8-mer binding enrichment) (E-score (-0.5 to 0.5)); higher = stronger / more preferred TF binding; most listed sequences are background and not binding sites). Conditions: protein concentration: 200 nM; construct: GST-full length.
T1 sequence: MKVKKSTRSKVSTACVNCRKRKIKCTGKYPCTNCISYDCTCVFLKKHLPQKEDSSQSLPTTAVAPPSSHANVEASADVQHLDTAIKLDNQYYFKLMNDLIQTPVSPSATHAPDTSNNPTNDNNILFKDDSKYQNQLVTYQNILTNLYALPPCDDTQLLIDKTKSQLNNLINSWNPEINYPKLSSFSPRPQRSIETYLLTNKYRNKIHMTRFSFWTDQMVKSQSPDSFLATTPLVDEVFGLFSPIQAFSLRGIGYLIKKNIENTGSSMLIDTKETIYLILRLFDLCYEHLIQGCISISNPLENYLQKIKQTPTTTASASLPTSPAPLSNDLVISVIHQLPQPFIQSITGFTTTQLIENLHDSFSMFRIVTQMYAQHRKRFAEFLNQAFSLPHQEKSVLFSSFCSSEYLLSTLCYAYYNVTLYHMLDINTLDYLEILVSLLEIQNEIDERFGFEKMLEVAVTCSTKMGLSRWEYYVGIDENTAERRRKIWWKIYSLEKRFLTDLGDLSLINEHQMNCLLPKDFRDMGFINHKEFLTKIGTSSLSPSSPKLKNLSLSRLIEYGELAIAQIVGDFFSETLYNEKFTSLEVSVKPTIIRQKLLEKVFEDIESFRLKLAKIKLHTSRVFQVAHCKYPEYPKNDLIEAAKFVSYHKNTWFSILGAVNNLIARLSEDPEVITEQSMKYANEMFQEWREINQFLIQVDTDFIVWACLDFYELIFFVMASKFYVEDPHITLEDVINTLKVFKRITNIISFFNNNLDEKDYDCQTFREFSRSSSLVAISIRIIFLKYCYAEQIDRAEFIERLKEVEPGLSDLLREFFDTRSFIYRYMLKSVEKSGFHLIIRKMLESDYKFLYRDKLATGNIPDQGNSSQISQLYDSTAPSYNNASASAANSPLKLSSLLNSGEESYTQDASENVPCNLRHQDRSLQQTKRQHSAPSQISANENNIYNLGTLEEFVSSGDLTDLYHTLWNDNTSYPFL
Procedure, shortened: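 GST-tagged yeast TFs (full-length or DNA-binding domain) were made by PURExpress in vitro transcription/translation and applied at about 100-200 nM to universal all-10-mer Agilent arrays. The arrays were made double-stranded by primer extension, on fresh or once-stripped slides. Bound protein was detected with fluorescent anti-GST, and scans were normalised with masliner. Each ungapped eight-base word, pooled with its reverse complement, received an E-score (modified Wilcoxon-Mann-Whitney statistic) from the Universal PBM Analysis Suite.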

Row | Sequence | PBM E-score
1 | AAGCACTT | -0.0897
2 | GCCTAGCC | -0.0448
3 | CGTGACCA | -0.0378
4 | AGGCTCAT | -0.0553
5 | ACCAGAAA | -0.105
6 | CCCTCCAA | -0.217
7 | ACTATCTG | -0.339
8 | AAGTGCAT | -0.174
9 | GCGTTAAC | -0.108
10 | CTTTATGC | -0.0559
11 | ACATCGAG | -0.295
12 | TTGTAAAA | -0.125
13 | TCGAAGAA | 0.04
14 | ACAGAAAT | -0.0828
15 | ACCTGTAA | -0.179
16 | CCCAGTAA | -0.0462
17 | CCATACAC | 0.00239
18 | AGCGCGAG | -0.0774
19 | AAGCCACG | -0.0153
20 | AAATTGGC | 0.024
21 | AACGGCTG | 0.0388
22 | ATTCGCAG | -0.0389
23 | ACAAGGAG | 0.0247
24 | AAGTTAGA | 0.025
25 | ACAAGATG | -0.102

Row | Sequence | PBM E-score
26 | CGAGATAG | -0.108
27 | TAATCCGA | 0.0593
28 | CTTAAAAG | -0.378
29 | CATGTTAG | -0.306
30 | ATGATTTG | 0.0369
31 | AGCCGGCA | 0.339
32 | AGAGCGAT | -0.147
33 | ATCTCAGG | 0.00088
34 | AGCCAACA | -0.0699
35 | ACCAAAGC | 0.0196
36 | AGGGTGGG | 0.00388
37 | ACGCGTGC | 0.0478
38 | ATCACGTA | -0.0663
39 | GCCACACC | -0.007
40 | ATTTGTAG | -0.179
41 | GCACGTCA | -0.225
42 | CCTACAAC | -0.12
43 | TATTATGA | -0.088
44 | GCCTGCCC | -0.0411
45 | AACCGCGG | 0.457
46 | CTGAGTTA | -0.195
47 | ATTGGATC | 0.0324
48 | CGGGAGGC | 0.112
49 | TGGTACAA | -0.139
50 | ACTAATCC | 0.0746

Row | Sequence | PBM E-score
51 | CACTTTGA | -0.193
52 | CGAATTTA | 0.0465
53 | GCAATGTA | -0.0487
54 | ACCCCTGC | -0.097
55 | TAGGCATA | -0.229
56 | GCATTGGC | -0.309
57 | AAGCGCCT | 0.0078
58 | GAGGGCCC | -0.032
59 | ACGGCCGG | 0.344
60 | TAAGCGAA | -0.0916
61 | AATCTTGC | 0.0152
62 | ACATTTGA | 0.0119
63 | CATAGGCC | 0.028
64 | CTACATAA | -0.236
65 | GTTGCAAC | 0.00318
66 | TATAACCA | -0.0221
67 | CTAAAGTC | -0.143
68 | CCTGGAGC | -0.231
69 | ACTATTAC | 0.0813
70 | TAATTAGA | 0.0699
71 | AATGCCGG | 0.308
72 | ACACGTTC | -0.0023
73 | TGACATCA | -0.0444
74 | GTCAGCAA | -0.201
75 | ACCATCGA | -0.164

Row | Sequence | PBM E-score
76 | AGCCATTA | -0.00061
77 | AAGAAACC | 0.0731
78 | AAAAATAT | 0.0611
79 | GCGATCAC | -0.0291
80 | AAGAGCTA | -0.145
81 | CTTGGCGA | -0.246
82 | AGACCAAC | -0.112
83 | CAAGGATG | -0.163
84 | GGCTCAAA | -0.0861
85 | CCAACCTC | -3e-05
86 | ACTCGCCC | 0.00575
87 | AGTATCTC | 0.12
88 | AAAACATA | -0.0915
89 | GACGGATC | 0.313
90 | AATACGTG | -0.0764
91 | GACTTTGC | 0.00883
92 | CCATTCCC | 0.101
93 | CGTGAACG | -0.107
94 | CTAGGATA | -0.105
95 | ACGCTATG | -0.187
96 | AAAACGTA | -0.164
97 | CGTTCACC | -0.0232
98 | ATTGATTG | 0.196
99 | GCTTTAAC | -0.0882
100 | ATAAATTG | 0.213

Row | Sequence | PBM E-score
101 | ATCCAGGG | -0.183
102 | AGTCCGGG | 0.301
103 | CGTCGCCA | -0.134
104 | CTGCCTAC | -0.0485
105 | GGACCCAA | 0.0523
106 | GCTATTCA | 0.0956
107 | TAACCGTA | -0.057
108 | CCCGCGCG | 0.382
109 | GAGAGAAA | -0.101
110 | GCCAGCTA | -0.138
111 | CGGGTGAA | 0.279
112 | GGCCGGAC | 0.216
113 | AAGCTACC | 0.115
114 | TACTCGCA | 0.0266
115 | ACACTCAA | 0.0057
116 | GTTACGGA | 0.266
117 | GGCCCGAC | 0.119
118 | AACTCTTA | -0.0657
119 | GACATCGA | 0.00193
120 | CGCACCGC | 0.162
121 | ATCGAGGA | 0.00127
122 | ATGTATTA | -0.096
123 | GCTATACC | 0.0194
124 | AGCACCTG | -0.241
125 | CGCTCACC | 0.0448

Row | Sequence | PBM E-score
126 | ACCTGCCC | 0.18
127 | AATGCCAA | -0.0918
128 | AACGGTCC | 0.139
129 | AAACAAGC | -0.0204
130 | AAAGCAGT | 0.0133
131 | GAGACAAC | 0.00582
132 | ACTCAGAA | -0.0574
133 | AGGTTAAT | -0.0492
134 | CTTATCTC | -0.0426
135 | AACGAGGG | -0.175
136 | CAGACCTG | -0.103
137 | GAGTGTCC | 0.11
138 | AATAACCT | -0.127
139 | AGGCATAC | -0.0587
140 | ACATTCAA | 0.0599
141 | AGCTTACC | -0.0699
142 | GAGGTGAC | 0.11
143 | CCATCATA | -0.0567
144 | CGGAATGC | 0.434
145 | ACGTCACG | -0.0656
146 | AATGGCCC | -0.177
147 | ACTCTCTG | -0.204
148 | ATTTGTTC | 0.221
149 | CGCACGCC | 0.0867
150 | GGTCGTAA | -0.0241

Row | Sequence | PBM E-score
151 | AAGGTGCG | -0.0376
152 | CCGGGACA | 0.376
153 | GCTGTACC | -0.00444
154 | AGGATTAG | -0.213
155 | CTCTTTTC | -0.18
156 | CTGAGAAA | -0.236
157 | GACGTGTA | -0.126
158 | AACACGAA | 0.0946
159 | CTCCCGGA | 0.386
160 | AAGATGCG | 0.0797
161 | AGAGGACT | -0.288
162 | AGGTTTAC | -0.267
163 | ATCCGATA | 0.298
164 | GGGTATCA | -0.0831
165 | CACGACAA | -0.102
166 | CTCCCCTC | 0.0991
167 | AAGTACAA | -0.14
168 | GCTGAAAA | 0.0779
169 | AACACCAC | 0.0781
170 | AGTAGTCA | -0.155
171 | CGGATCCA | 0.413
172 | GAAGGCTA | -0.142
173 | CTATGAAC | -0.156
174 | ATGCTTGA | -0.05
175 | ATCAGCAA | 0.0503

Row | Sequence | PBM E-score
176 | AAAGACCC | -0.00528
177 | ATGCGCGA | 0.0846
178 | TCGATCCA | -0.12
179 | ACTGGAGA | -0.17
180 | ATCACAAG | -0.094
181 | ACGGCTAC | 0.0619
182 | CAGTTAAG | 0.0368
183 | CCGGACCC | 0.379
184 | AAGGACGC | -0.0165
185 | ATGAAAAA | 0.0268
186 | AGTTTCAG | -0.0792
187 | ACCGGTCT | -0.0977
188 | AAGTGGGT | -0.0079
189 | AAGCGCGT | -0.113
190 | AAGAGTAG | -0.102
191 | ACATTCGC | 0.0323
192 | ACCAACGT | -0.171
193 | CGTGAAGC | -0.0378
194 | TGAGGAAA | -0.0997
195 | GTAGGCTA | -0.259
196 | ATACAACA | -0.145
197 | ACAAACGG | 0.247
198 | AGAGCTCC | 0.101
199 | ACTCACTA | -0.107
200 | ATCGGCAG | 0.0695

Row | Sequence | PBM E-score
201 | GACAACGA | 0.0946
202 | ATCAATAC | -0.0781
203 | GAGATGCC | 0.0537
204 | CCCTTATC | -0.145
205 | TAGGTCGA | 0.0176
206 | CTGTGAAC | -0.142
207 | CTTTAGCC | 0.0828
208 | GGCCCCTA | -0.0294
209 | ATAGTGGA | 0.0309
210 | CATCGTGA | 0.00952
211 | CGTTCGTC | 0.101
212 | AGCTTCAC | -0.165
213 | CTTATTCC | 0.189
214 | CGGCGACC | 0.276
215 | TACCTGGA | 0.0517
216 | AAAAGATC | -0.0361
217 | TGAAGTAA | -0.0771
218 | ACTTAACC | -0.166
219 | GAGCTCCC | 0.0427
